Experimental data reported in the supplement of paper PMC3334620.
Over roughly 33,000 sequences, “E-score (-0.5 to 0.5)” has its median near -0.054; the highest 2% begin near 0.35. The list shows a part of the results.

These sequences were tested against T1, Stb5 (UniProt P38699) (assay: PBM E-score (8-mer binding enrichment) (E-score (-0.5 to 0.5)); higher = stronger / more preferred TF binding; most listed sequences are background and not binding sites). Details: protein concentration: 200 nM; construct: GST-full length.
T1 sequence: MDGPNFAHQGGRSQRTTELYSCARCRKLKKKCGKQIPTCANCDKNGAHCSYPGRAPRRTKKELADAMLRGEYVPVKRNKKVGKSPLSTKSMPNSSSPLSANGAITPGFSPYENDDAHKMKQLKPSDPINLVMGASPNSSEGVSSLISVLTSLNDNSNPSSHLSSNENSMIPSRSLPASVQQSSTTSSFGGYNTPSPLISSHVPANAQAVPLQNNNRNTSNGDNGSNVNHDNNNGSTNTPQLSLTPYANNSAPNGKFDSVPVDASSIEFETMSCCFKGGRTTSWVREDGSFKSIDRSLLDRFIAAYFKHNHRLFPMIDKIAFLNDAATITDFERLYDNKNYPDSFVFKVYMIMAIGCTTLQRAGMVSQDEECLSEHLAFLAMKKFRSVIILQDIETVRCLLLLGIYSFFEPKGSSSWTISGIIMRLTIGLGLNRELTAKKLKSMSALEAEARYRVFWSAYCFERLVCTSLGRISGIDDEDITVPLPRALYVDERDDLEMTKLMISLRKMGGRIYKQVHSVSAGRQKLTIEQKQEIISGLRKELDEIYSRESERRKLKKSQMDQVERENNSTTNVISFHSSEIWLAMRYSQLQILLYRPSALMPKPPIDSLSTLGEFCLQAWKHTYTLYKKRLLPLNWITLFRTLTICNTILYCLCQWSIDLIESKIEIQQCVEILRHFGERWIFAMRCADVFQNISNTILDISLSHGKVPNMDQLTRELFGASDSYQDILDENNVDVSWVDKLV
Procedure, shortened: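 Using PURExpress in vitro transcription/translation, GST-tagged yeast transcription factors were made in full-length or DNA-binding-domain form. These were applied at about 100-200 nM to double-stranded universal all-10-mer Agilent arrays, and bound protein was detected with fluorescent anti-GST. Scans were normalised with masliner before the Universal PBM Analysis Suite assigned E-scores to ungapped eight-base words pooled with their reverse complements.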

| Sequence | PBM E-score |
| --- | --- |
| AAATCTGC | -0.117 |
| ACTGATAC | -0.0202 |
| CGGAAGGA | 0.142 |
| ATGGTTCA | -0.0452 |
| GATAACTA | 0.0203 |
| CTAGCATA | 0.0367 |
| AACCCGTA | 0.115 |
| AAGGAGTC | -0.117 |
| CTGAGCGC | -0.13 |
| AAATGGTA | -0.0932 |
| CTTGATCC | 0.065 |
| AAAATGCC | 0.247 |
| CCTTAGAA | 0.0508 |
| GTTCACAA | -0.209 |
| ACTGCTAG | -0.181 |
| AGGGGGGG | -0.251 |
| AGACTTTG | -0.361 |
| GATCAGTA | -0.16 |
| AATTTTGA | -0.042 |
| CCAAGGAA | -0.183 |
| ACTATGGA | 0.00151 |
| AAAGTGTC | 0.038 |
| CCCGTCGA | 0.206 |
| GATAAAAA | 0.0495 |
| ATTTTTTC | -0.00215 |

| Sequence | PBM E-score |
| --- | --- |
| ATATACTG | -0.0449 |
| AGGCAAGC | -0.148 |
| CGTCCCTA | -0.0559 |
| CTGGCTGC | -0.193 |
| CATGATAC | -0.0135 |
| CGAGATTC | -0.165 |
| CCAAGTAG | -0.293 |
| CCTGGTCG | 0.0613 |
| CTTTTGCC | 0.0873 |
| ATTTCCTG | -0.105 |
| GAGACCCC | 0.0637 |
| GGACAGCA | -0.0843 |
| CGAATGAA | 0.0336 |
| CAAAATTA | 0.0298 |
| CTGCTTCA | -0.299 |
| CCCCAAGG | -0.156 |
| CGTCATAA | -0.0418 |
| AAACATGT | -0.043 |
| CCAACTGA | -0.28 |
| GTTGCACA | -0.249 |
| AAATCCAC | -0.219 |
| AGAGCTTG | -0.268 |
| ATGAGAGG | -0.19 |
| ATTCACAG | -0.215 |
| ACGAAGAA | -0.0852 |

| Sequence | PBM E-score |
| --- | --- |
| AGCCCGTA | 0.181 |
| GCCACTCC | -0.00337 |
| AACGTTTA | -0.0291 |
| GTACGATA | -0.199 |
| ACGCCGGA | 0.343 |
| ACGGAATA | 0.0203 |
| AAACACCC | 0.191 |
| CCCGTCGC | 0.25 |
| ACCGTTCT | 0.196 |
| CTTAGTTC | 0.0266 |
| GAATCTAC | -0.191 |
| GAGTGCAA | 0.0537 |
| AAGACGGC | 0.188 |
| TCAAAGGA | -0.205 |
| ATGTTATG | -0.079 |
| ACCACAGT | -0.0137 |
| CGCAATGC | 0.0228 |
| CACCACTA | 0.0321 |
| GTAGATAC | -0.142 |
| CGCAGTGA | -0.0459 |
| CAGGACCC | 0.0289 |
| ATTGTAAC | -0.119 |
| CCACGAAC | 0.0176 |
| ACATGACG | -0.0923 |
| CCAGGACG | 0.0545 |

| Sequence | PBM E-score |
| --- | --- |
| GCAGGTCC | -0.0123 |
| GCAGAAAC | -0.065 |
| AGATCGCG | 0.0683 |
| AAGTTACG | -0.00246 |
| ACTAAAAG | 0.141 |
| GACACGCA | -0.0703 |
| GCTAGATA | -0.0152 |
| CCAGACTC | -0.0079 |
| GTATGGTA | -0.168 |
| TATAGTCA | -0.292 |
| AAGCTGAG | -0.184 |
| CTAAGAGA | -0.00422 |
| CGAGAACC | -0.109 |
| CCCCTAGG | -0.13 |
| GAGAGCAC | -0.147 |
| GACAGTAC | 0.00753 |
| CACCGACA | 0.44 |
| AGAGTGAG | -0.0787 |
| AACGGGTA | 0.102 |
| CGGAGGAC | 0.156 |
| AAAAGTAG | -0.214 |
| ACTTGTCA | -0.00839 |
| AGCAAGAC | -0.0137 |
| AAGTACTG | -0.0952 |
| GTGCCCGA | 0.172 |

| Sequence | PBM E-score |
| --- | --- |
| ACACGCCG | 0.277 |
| AAACACAA | -0.125 |
| ACATCCCG | 0.148 |
| AGACGCGA | -0.027 |
| CTTGCGTA | -0.0824 |
| ATAGCGTA | 0.116 |
| CTTGCAAG | 0.203 |
| TACCCTGA | -0.0521 |
| ATATGTTA | -0.0321 |
| CTGACGAC | -0.177 |
| ACAGCATC | -0.197 |
| AATGAGGA | -0.342 |
| CACACCTC | -0.0997 |
| CTGGACAG | -0.123 |
| CCAATAGC | -0.113 |
| ATTAATTG | -0.0353 |
| ACGTTCCC | -0.205 |
| CGTCCAAA | 0.122 |
| AGAATCTA | -0.0808 |
| AACTTGTG | -0.138 |
| ATGGGAAG | -0.23 |
| ATTTTAGG | 0.0353 |
| AAACGATA | -0.107 |
| GGCTTGAC | -0.257 |
| ACAATGAA | -0.0923 |

| Sequence | PBM E-score |
| --- | --- |
| AGCCGGTA | 0.213 |
| CGCTGTGA | 0.13 |
| CCCCCCAG | -0.397 |
| GATTACAA | 0.117 |
| GGGACAGA | -0.102 |
| ATTGGTCG | -0.0411 |
| TCAAGCGA | -0.123 |
| CGCGACGC | 0.145 |
| CGTACTCA | -0.0502 |
| CAAGACAC | -0.0964 |
| CCGGCGCA | 0.245 |
| CGGTCCTC | 0.16 |
| CAGGTGAC | -0.154 |
| GGTCATGA | -0.094 |
| CGAAACTA | -0.0416 |
| CCTCGCGC | -0.159 |
| AGTGCAAT | -0.238 |
| ATCTAGAG | -0.145 |
| AGGCCCCG | 0.265 |
| ATCTATGA | -0.117 |
| CCTAGACA | 0.0869 |
| CTCATAAA | 0.0678 |
| ATACCTGA | -0.0268 |
| CGATTTGC | 0.0364 |
| AGAGCTCA | -0.294 |

| Sequence | PBM E-score |
| --- | --- |
| ACCTCATA | -0.228 |
| ATGTGTAG | 0.00787 |
| CTCGTGTA | -0.144 |
| GGAGGTAA | 0.231 |
| GCGATCGC | 0.0643 |
| GTAAGCAA | -0.146 |
| ACATTAGT | -0.0238 |
| CCGCAGTA | 0.146 |
| TACGAGGA | -0.146 |
| AATACTTA | -0.102 |
| TAATTCGA | -0.225 |
| ATACTTAA | -0.0622 |
| AATGCAAC | -0.133 |
| CTTTTGGC | -0.112 |
| CTGACATC | -0.153 |
| ATTTCAGC | -0.228 |
| CAGTTTAA | 0.106 |
| ACCTGGGA | -0.192 |
| GCCCTTAC | -0.0337 |
| ACCACCAG | -0.148 |
| CTATAAGA | -0.203 |
| GCGGGCAC | 0.212 |
